Source: publication PMC4336329 (PLoS ONE, 2015)
Hit rate of the full screen: of about 310,000 compounds, about 2,200 (0.71%) showed an effect of 50% or more. The effect is printed as a negative number. Some of the results follow.

target: human ether-à-go-go-related gene (hERG) potassium channel (human, UniProt Q12809); assay: primary screen, population patch clamp on CHO cells stably expressing hERG
Sequence (Q12809 whole entry, looked up): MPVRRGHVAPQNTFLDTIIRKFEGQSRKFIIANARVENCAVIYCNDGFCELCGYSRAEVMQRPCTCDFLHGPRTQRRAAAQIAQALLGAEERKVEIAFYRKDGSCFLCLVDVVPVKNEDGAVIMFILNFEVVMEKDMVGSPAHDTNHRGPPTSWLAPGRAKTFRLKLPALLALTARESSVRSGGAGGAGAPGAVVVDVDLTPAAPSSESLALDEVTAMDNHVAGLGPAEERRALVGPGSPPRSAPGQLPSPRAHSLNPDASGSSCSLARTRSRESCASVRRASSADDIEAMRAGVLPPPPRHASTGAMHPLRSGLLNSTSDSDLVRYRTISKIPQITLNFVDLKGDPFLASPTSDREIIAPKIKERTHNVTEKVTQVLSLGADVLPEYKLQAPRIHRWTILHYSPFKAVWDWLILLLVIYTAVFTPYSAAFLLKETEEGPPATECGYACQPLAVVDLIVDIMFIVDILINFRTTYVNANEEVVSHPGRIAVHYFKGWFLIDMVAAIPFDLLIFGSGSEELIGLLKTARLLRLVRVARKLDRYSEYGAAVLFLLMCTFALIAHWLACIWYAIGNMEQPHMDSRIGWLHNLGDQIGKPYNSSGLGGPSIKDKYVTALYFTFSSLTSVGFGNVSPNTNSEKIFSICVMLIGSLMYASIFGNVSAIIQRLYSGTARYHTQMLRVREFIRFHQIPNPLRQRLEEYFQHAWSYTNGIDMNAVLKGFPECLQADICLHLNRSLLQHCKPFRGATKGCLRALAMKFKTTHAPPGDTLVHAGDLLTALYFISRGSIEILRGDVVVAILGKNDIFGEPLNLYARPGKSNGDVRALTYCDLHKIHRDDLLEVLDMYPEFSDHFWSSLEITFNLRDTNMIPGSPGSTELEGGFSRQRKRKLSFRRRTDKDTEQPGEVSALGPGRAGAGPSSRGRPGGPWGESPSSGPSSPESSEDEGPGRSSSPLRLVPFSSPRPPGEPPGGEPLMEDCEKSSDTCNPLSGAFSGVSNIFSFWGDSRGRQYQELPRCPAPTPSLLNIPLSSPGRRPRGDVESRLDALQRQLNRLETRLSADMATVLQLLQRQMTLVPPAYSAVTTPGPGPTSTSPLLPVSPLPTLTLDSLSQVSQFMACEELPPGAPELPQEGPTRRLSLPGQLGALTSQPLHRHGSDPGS

Structure (SMILES) | hERG current change (%, negative = inhibition) at 1uM [%]
CC1(C)CC2(CC(c3ccccc3)c3ccc(O)cc3O2)NC(=S)N1 (stereo not drawn) | 19.5
Nc1nc(SCC(=O)NN(c2ccccc2)c2ccccc2)n[nH]1 | 3.95
Cc1cc(C=O)c(O)cc1O | 7.64
CCN1CC=C2C(C#N)=C(N)C(C#N)(C#N)[C@H](c3cccc(OC)c3OC)[C@H]2C1 | 1.1
COc1ccccc1Oc1c(C)oc2c(CN(C)C)c(O)ccc2c1=O | 5.97
COC(=O)COn1c(-n2nc(C)cc2C)nc2ccccc2c1=O | 14.6
CCOc1ccc2nc(NC(=O)c3cccc(-c4cc5ccccc5oc4=O)c3)sc2c1 | 10.8
O=C(COc1ccc(Cl)cc1Cl)Nc1noc2ccccc12 | 20
CCOc1ccc(N2CC(C(=O)NC(C)C)CC2=O)cc1 (stereo not drawn) | 11.2
CCOC(=O)C(C(=O)OCC)N(C#N)c1nc(OC)nc(N(C)C)n1 | 0.944
N#Cc1cccc(NC(=O)COC(=O)CCc2nc3ccccc3c(=O)[nH]2)c1 | 8.45
COc1cccc(C(=O)OCC(=O)c2ccc(Br)s2)c1OC | 6.08
CC1(C)Cc2cccc(Oc3ccc(S(=O)(=O)N4CCCC4)cn3)c2O1 | -5.56
COC(=O)c1cc(S(=O)(=O)N2CCCC2=O)c(Cl)cc1Cl | 12.6
C#CCSc1nnc(-c2cc3c(C(F)(F)F)nn(C)c3s2)n1C | 15.5
CC(C)(CNC(=O)c1ccccc1NS(C)(=O)=O)N1CCCCC1 | 6.69
Fc1ccccc1NC(=S)N1CCOCC1 | 12.2
Cc1ccn2c(=O)nc(SCc3cccc(C(F)(F)F)c3)nc2c1 | 2.48
CCOc1ccc(S(=O)(=O)Nc2nc3cc(OC)ccc3s2)cc1 | 9.1
CCC/C=C(\CCC)C(NC(=O)c1ccc(C(F)(F)F)cc1)c1ccccc1 (stereo not drawn) | 17.5
Cc1cccc(NC(=O)c2nc(-c3ccccc3)n(-c3ccccc3)n2)c1C | -9.78
O=C(NCCc1ccccc1)c1cccc([N+](=O)[O-])c1 | 14.4
COC(=O)c1cc(C(=O)NNC(=O)c2ccc3c(c2)OCO3)cc([N+](=O)[O-])c1 | 4.47

Structure (SMILES) | hERG current change (%, negative = inhibition) at 1uM [%]
Cc1ccc(C(=O)OCC(=O)c2ccc(CC(=O)N3CCOCC3)s2)cc1C | -13.5
NS(=O)(=O)c1ccc(NC(=O)CSc2nc3ccccc3[nH]2)cc1 | -0.413
Cc1ccc(CS(=O)(=O)CCC(=O)NCCCOC(C)C)cc1 | 7.23
O=C(NCc1ccccc1Cl)c1ccc(S(=O)(=O)Nc2cccc(C(F)(F)F)c2)cc1 | 12.6
Cc1ccc(OC(C)C(=O)Nc2ccccc2C(=O)N2CCN(C)CC2)cc1 (stereo not drawn) | 5.52
COc1cccc(-c2ncc3ccccc3c2COC(=O)c2ccco2)c1 | 11.7
CCC1(CC)C(=O)N=C2c3ccccc3C(=O)N21 | 0.387
COc1ccc(NC(=O)CCNS(=O)(=O)c2ccc3c(c2)CCC(=O)N3)cc1 | 4.36
COCCCN(C(=O)c1ccccc1F)c1nc(-c2ccc(OC)cc2)cs1 | 12
CCO/C(C)=C1\C(=O)N(CC)c2ccccc21 | 6.14
CCC(C(=O)NC1CCCC1)N(C(=O)Cn1nnc(-c2ccc(OC)c(OC)c2)n1)C1CCCCC1 (stereo not drawn) | 0.313
CCOC(=O)N1CCC(NC(=O)c2cccs2)CC1 | 9.95
COc1ccc(S(=O)(=O)NCc2ccccn2)cc1Cl | 0.79
CCc1nnc(NC(=O)C2CC(=O)N(Cc3ccco3)C2)s1 (stereo not drawn) | 5.88
C/C(=N\Nc1ccccc1[N+](=O)[O-])c1ccccc1O | 20.4
CCCOc1ccc(N2C(=O)CC(SC(=NC)Nc3ccc(F)cc3)C2=O)cc1 (stereo not drawn) | 12.5
Cc1ccccc1N1CCN(S(=O)(=O)c2nnc(NC(=O)CC(C)C)s2)CC1 | 16.3
COc1ccccc1-n1c(COc2ccccc2-c2ccccc2)nnc1SCC(=O)c1c(N)n(C)c(=O)n(C)c1=O | 15.4
CCn1c(/N=C/c2c[nH]c3ccccc23)nc2ccccc21 | 12.2
C=CCn1c(SC(C)C(=O)NCc2ccc3c(c2)OCO3)nnc1C1CCCCC1 (stereo not drawn) | 4.76
COC(=O)c1ccccc1-c1cn(C)c2ccccc2c1=O | 9.38
CC(=O)SCC(C)C(=O)NCc1ccccc1 (stereo not drawn) | 20.2
CCN(CC(=O)Nc1ccc(NC(C)=O)cc1)C(=O)c1cc2c(s1)CCCCC2 | 2.11

Structure (SMILES) | hERG current change (%, negative = inhibition) at 1uM [%]
CC1(C)CC(=O)C2=C(C1)OC(N)=C(C#N)C21CCN(Cc2ccccc2)CC1 | 16.2
Cc1ccc(CSCC(=O)NCCCN2CCOCC2)cc1 | 16.7
O=C(NCCNS(=O)(=O)c1ccccc1)c1cc(OCC(F)(F)F)ccc1OCC(F)(F)F | 0.144
O=C(c1ccc(CNc2c(N3CCCC3)c(=O)c2=O)cc1)N1CCN(C2CCCCC2)CC1 | 13.2
Cc1ccc(OCC(O)CN2C(=O)NC(C)(C)C2=O)c(C)c1 (stereo not drawn) | 6.92
Cc1ccc2c(c1)N(C(C)C(=O)N1CCC3(CC1)OCCO3)C(=O)CO2 (stereo not drawn) | 13.9
CCOC(=O)c1cc2c(=O)n3ccccc3nc2n(CCCOC)c1=NC(=O)c1ccncc1 | -40
CCCn1c(-c2ccc[nH]c2=O)nc2ccccc21 | 13.6
Br.CC(C)CC1CC(=O)OC1(C)C(=O)CSc1nc2ccccc2s1 (stereo not drawn) | 13.8
Cc1ccc(NC(=O)Cc2nnc(SCC(=O)NC3CCCC3)n2C)cc1 | 11.4
CC1=C(C(=O)N2CCOCC2)C(c2ccccc2F)C2=C(CC(C)(C)CC2=O)N1 (stereo not drawn) | 2.56
COc1ccc(NS(=O)(=O)c2ccc(N3CCCC3=O)cc2)cn1 | 10.6
COc1cc(C(=O)Nc2ccc(N(C)C)cc2)c([N+](=O)[O-])cc1OC | 13.6
COc1cc(/C=N/N=C/c2c[nH]c(=O)c(C#N)c2Nc2ccccc2)ccc1O | 8.15
CCC[C@@H]1C[C@@]1(CCC)[C@@H](NP(=O)(c1ccccc1)c1ccccc1)c1ccc(C(=O)OC)cc1 | 8.17
CCCCCNC(=O)c1ccccc1SC | 7.72
CCOc1ccc(CCNC(=O)c2sc3nc4n(c(=O)c3c2C)CCC4)cc1OCC | 0.811
Cc1ccc(N2CC(C(=O)Nc3ccncc3)CC2=O)cc1 (stereo not drawn) | 6.22
Nc1nnc(CCS(=O)(=O)c2ccc(Cl)cc2)s1 | 0.573
Cc1ccc(C(=O)N/C(=C\c2ccco2)C(=O)N2CCCCC2)cc1 | 10.4
C=CCN1CCN(c2ccncc2S(=O)(=O)N2CCCCC2)CC1 | 9.05
O=S1(=O)CCC(NC(=S)NC2CCS(=O)(=O)C2)C1 (stereo not drawn) | 11.6
COc1ccc(S(=O)(=O)CCc2nc3ccccc3s2)cc1 | 3.21

Structure (SMILES) | hERG current change (%, negative = inhibition) at 1uM [%]
O=C(c1ccc(N2CCCC2)c([N+](=O)[O-])c1)N1CCc2ccccc2C1 | 9.05
CC(C)(C)C(=O)Nc1ccc(S(=O)(=O)c2ccc(NC(=O)C(C)(C)C)cc2)cc1 | 16.3
COc1ccc(CCNC(=O)CN(c2cc(OC)ccc2OC)S(=O)(=O)c2ccccc2)cc1 | 14.6
CC(C)(C)c1ccc(C(=O)NCCOc2ccccc2F)cc1 | 8.82
Cc1cnc(NC(=O)c2ccc3c(c2)OCCO3)s1 | 6.7
O=S1(=O)CCC(NC(=S)N2CCCCCC2)C1 (stereo not drawn) | 14.1
CCN1CCN(C(=O)/C=C/c2ccc(OC)c(OC)c2)CC1 | 14.8
CCCCN1C(=O)C(=O)N(CC(=O)Nc2sc(C)c(C)c2C(=O)OC)C1=O | 10.5
Cc1ccc(NC(=O)NCc2cccn2C)cc1C | 13
COc1ccc(C2C=C(c3ccccc3)Nc3nc(CCCO)nn32)cc1 (stereo not drawn) | 5.06
Cc1cc(C)n2nc(C(=O)NCCc3ccccc3)nc2n1 | 9.62
CCC/S(CC1CC1(Cl)Cl)=N\S(=O)(=O)c1ccc(C)cc1 (stereo not drawn) | 0.842
Cc1cc(C)nc(Nc2cccc(C(F)(F)F)c2)n1.Cl | 13.7
CCCCCC(=O)NCc1c(C(F)(F)F)nn(C)c1N1CCOCC1 | 8.92
O=C(Nc1ccn(-c2ccccc2)n1)c1ccc(S(=O)(=O)N2CCCCCC2)cc1 | -1.55
COC(=O)c1ccc(NC(=O)CCn2c(=O)oc3ccccc32)cc1 | 16.8
C/C(N)=C(/C#N)C(=O)COC(=O)c1oc2ccccc2c1COC(C)C | 11.4
COC(=O)c1ccc(-c2c(-c3ccccc3)ncc3cc(OC)c(OC)cc23)cc1 | 2.4
O=C(O)c1ccccc1-c1ccccc1C(=O)Nc1cccc2ccccc12 | 20
C=CCn1c(SCC(=O)NC2CC2)nnc1-c1ccccn1 | 11.1
C#CCOCCOCCOCCNc1nc(N2CCN(C(=O)[C@H](CCCCN)n3cc([C@@H](N)CC(C)C)nn3)CC2)nc(N2CCN(C(=O)[C@H](Cc3ccc(O)cc3)n3cc([C@@H](N)CC(C)C)nn3)CC2)n1.Cl | 3.67
